In PubChem BioAssay AID1379 (National Center for Advancing Translational Sciences (NCATS), 2008):
In all, about 200,000 compounds went through this assay and about 560 (0.28%) were called active. Inconclusive means that the source gave no clear call. Such entries were picked first, then a sample of the others. The call rests on the fitted dose curve; in most records, active means well fitted inhibition curve with a large enough effect; inconclusive means small, poorly fitted or top-dose-only effect; inactive means flat fitted curve, though single readings scatter. Potencies of inconclusive entries are left out as doubtful fits. Some compounds were tested as several samples or in several runs, with calls that do not always agree.

Each compound was assayed against Luciferin 4-monooxygenase (Photuris pensylvanica) (UniProt Q27757) (assay: Counterscreen for Luciferase (Kinase-Glo TM) Inhibition). Conditions: ATP luminescence, 8 min; series mostly up to 38.3 µM.
Procedure, shortened: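 Inhibition of Kinase-Glo luciferase light generation was assessed at 10 uM ATP in pH 7.2 imidazole buffer, with luminescence measured after eight minutes at ambient temperature.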
Further: nearly all actives have a fitted effect of over 60% in size.
On the % scale 0 is the no-effect control and ±100 the full control effect; potency means the concentration at half of the fitted maximal effect; tags describe the fitted curve by direction and shape.

SMILES | Potency | activity change, negative = inhibition
Cc1ccsc1C(=O)Nc1ccc(C(=O)O)cc1 | inconclusive [inhibitor, partial curve] | 
Cc1cc(=O)[nH]c(N=N/C(=N/Nc2ccc(O)cc2)c2ccccc2)n1 | active: 7.94 µM | 
Cc1nc2nc(-c3cccs3)cn2nc1C | inconclusive [inhibitor, partial curve] | 
CN(C)c1ccc(CNCCC2(O)CCOC(C)(C)C2)cc1 (stereo unspecified) | inactive | 
Nc1nc2ccccc2n1C(=O)c1ccc(F)cc1 | inconclusive [inhibitor, partial curve] | 
Cc1ccc(S(=O)(=O)N2CCN(CC(=O)NC(=O)NCc3ccccc3)CC2)cc1C | inactive | 
N[C@H](Cc1ccc(O)c(O)c1)C(=O)O | inactive | 
COc1ccc(/C=N/Nc2nccnc2Cl)cc1 | active: 7.08 µM | 
Cc1cccc(/C=C\c2ccccc2)n1 | active: 11.2 µM | 
O=C(Cn1nnc2ccccc21)N/N=C\C=C\c1ccccc1 | inactive | 
COc1cc(NC(=S)N2CCN(C(=O)c3ccco3)CC2)c(OC)cc1Cl | inactive | 
CC1(C)CC(=O)c2sc(NC(=O)c3cccs3)nc2C1 | inconclusive [inhibitor, single point] | 
COc1ccc(-c2nc3ccccc3[nH]2)cc1 | active: 8.91 µM | 
CSc1ccc(/C=N/NC(=O)c2cccc(Cl)c2)cc1 | inconclusive [inhibitor, single point] | 
O=C1c2c(O)ccc(O)c2C(=O)c2c(NCCNCCO)ccc(NCCNCCO)c21 | active: 12.6 µM | 
O=C(Nc1ncccc1Cl)c1ccc2c(c1)OCCO2 | inconclusive [inhibitor, partial curve] | 
Cc1cccc(/N=C/c2c(O)c3ccccc3oc2=O)n1 | inconclusive [inhibitor, single point] | 
CCOC(=O)Cc1ccc2sc(-c3ccccc3)nc2c1 | inconclusive [inhibitor, single point] | 
COc1ccc(-c2cc(=O)c3ccccc3s2)cc1 | inconclusive [inhibitor, single point] | 
Clc1ccc(/C=C/c2nc3ccccc3[nH]2)c(Cl)c1 | active: 7.08 µM | 
CC1CCN(C(=S)NC(=O)c2cccs2)CC1 | inactive | 
COc1ccccc1NC(=O)C(=O)Nc1ccccn1 | inconclusive [inhibitor, single point] | 

SMILES | Potency | activity change, negative = inhibition
Cc1nc(-c2ccc(C(=O)Nc3cccc(Br)c3)cc2)cs1 | inconclusive [inhibitor, single point] | 
Cc1ccccc1C(=O)O/N=C(\N)c1cccc([N+](=O)[O-])c1 | inconclusive [inhibitor, single point] | 
c1ccc2[nH]c(NN=C3CCCCCC3)nc2c1 | inconclusive [inhibitor, partial curve] | 
CSc1ccc(/C=C/C(=O)Nc2ccccc2)cc1 | active: 12.6 µM | 
O=C(O)/C=C/C(=O)NNc1ccc([N+](=O)[O-])cc1 | inconclusive [inhibitor, single point] | 
COc1ccc(-c2cc(=O)c3cc(OC)ccc3[nH]2)cc1 | inconclusive [inhibitor, partial curve] | 
O=C(Nc1ccc(N2CCCC2)c(Cl)c1)c1cccs1 | inconclusive [inhibitor, partial curve] | 
Cc1cc(C)n(-c2nc(SCCN(C)C)c3c4c(sc3n2)COC(C)(C)C4)n1 | inactive | 
CCn1c(O)c(C2=c3ccccc3=NC2=O)c2cc(Br)ccc21 | inconclusive [inhibitor, single point] | 
CCCCCNCc1cccc(Br)c1 | inactive | 
Clc1ccc2nc(-c3ccc4c(c3)OCO4)cn2c1 | inconclusive [inhibitor, single point] | 
Nc1nc(N)nc(COc2ccccc2)n1 | inconclusive [inhibitor, partial curve] | 
CCOc1cc(/C=N/Nc2ncnc(Cl)c2N)ccc1O | inactive | 
N/C(=N\OC(=O)c1ccc(Cl)cc1Cl)c1ccccn1 | active: 11.2 µM | 
COc1cccc(NC(=O)COc2ccccc2C(N)=O)c1 | inconclusive [inhibitor, single point] | 
Cc1ccc(/C=N/N=C/c2ccc(C)cc2)cc1 | inactive | 
Cn1cc([N+](=O)[O-])c(C(=O)Nc2ccc3c(c2)OCCO3)n1 | inconclusive [inhibitor, single point] | 
O=C(O)[C@@H]1[C@@H]2C[C@H]([C@@H](Br)[C@H]2N2C(=O)CCC2=O)[C@@H]1C(=O)O |  | inactive: -3.03% [at 7.66 µM]
CS(=O)(=O)N1CC(C(=O)NC2CC2)Oc2ccc(Cl)cc21 (stereo unspecified) | inactive | 
NC(=O)c1ccc2nc(NC(=O)c3ccc(N)cc3)sc2c1 | inactive | 
N/C(=N\OCc1ccccc1)c1nonc1N | inconclusive [inhibitor, partial curve] | 
COc1ccc(NC(=O)c2cccs2)cc1O | inconclusive [inhibitor, single point] | 

SMILES | Potency | activity change, negative = inhibition
COc1cc(OC)cc(C(=O)Nc2ccc(-n3cnnn3)c(C)c2)c1 | active: 14.1 µM | 
COc1ccc(C(=O)Nc2ccc(S(=O)(=O)N3CCOCC3)cc2)cc1OC | inactive | 
O=C(Nc1ccc(N2CCCCC2)cc1)c1ccccc1 | inconclusive [inhibitor, single point] | 
COc1ccc(NC(=O)c2sccc2C)cn1 | inconclusive [inhibitor, single point] | 
N#CCCN1CCN(C2=NC(=O)C(=C3CCCCC3)S2)CC1 | inactive | 
Cn1cccc1C(=O)OCc1csc(-c2ccccc2)n1 | inconclusive [inhibitor, partial curve] | 
COc1ccc(/C=N/N2C(=O)c3ccccc3C2=O)cc1 | active: 14.1 µM | 
COc1ccc(/C=C/C(=O)c2ccccc2O)cc1 | inconclusive [inhibitor, single point] | 
Cc1ccc(C(=O)/C=C/Nc2cccc(O)c2)cc1 | inconclusive [inhibitor, single point] | 
COc1ccc(S(=O)(=O)N2CCCC2)cc1C(C)C | inactive | 
O=C(COc1ccc(Cl)cc1Cl)NN=C1CCCCC1 | inactive | 
Cc1cc(C)cc(Oc2ccc(N)cc2)c1 | inactive | 
COc1ccc(COC2OC[C@]3(C)[C@H]4C5=C(CN3C(=O)OC(C)(C)C)[C@H](C)C(CO)C(CO)C5CC[C@@H]24)cc1 (stereo partly specified) | inactive | 
Cc1ccc(/C=N\NC(=O)c2csnn2)cc1 | inconclusive [inhibitor, partial curve] | 
Cc1cc(C)c2c(N)c(C(=O)Nc3ncc(C)s3)sc2n1 | inconclusive [inhibitor, single point] | 
Cc1nc2nc(-c3ccccc3)cn2nc1C | active: 10 µM | 
c1ccc(-c2nc3cc4ccccc4cc3[nH]2)nc1 | active: 11.2 µM | 
O=C(Nc1ccc(OC(=O)c2cccs2)cc1)c1ccco1 | inconclusive [inhibitor, partial curve] | 
CCOc1ccc(-c2ccc(SCC)nn2)cc1 | inconclusive [inhibitor, partial curve] | 
O=C1CC(/C=C/c2cccnc2)=Nc2ccccc2N1 | inconclusive [inhibitor, single point] | 
C(=N\c1nc2ccccc2[nH]1)/c1cccs1 | inconclusive [inhibitor, partial curve] | 
CCOC(=O)Cc1csc(NC(=O)c2cc3ccccc3o2)n1 | inconclusive [inhibitor, single point] | 

SMILES | Potency | activity change, negative = inhibition
Cc1cc(-c2nc3ccccc3[nH]2)ccc1N | active: 10 µM | 
O=C(Nc1ccc2nc(-c3ccco3)c(-c3ccco3)nc2c1)N1CCCCCC1 | inactive | 
O=C(Cc1cn2ccsc2n1)OCc1ccccc1 | inactive | 
CSc1ncccc1C(=O)Nc1ccc(S(=O)(=O)NC2=NCCCCC2)cc1 | inactive | 
CCn1c(Cc2c(C)[nH]c3ccccc23)n[nH]c1=S | inactive | 
O=C(CSc1ccccc1)Nc1nccs1 | inactive | 
O=C(N/N=C/c1ccc(Br)s1)c1ccccn1 | inconclusive [inhibitor, single point] | 
Cc1ccsc1C=C1C(=O)c2ccccc2C1=O | inconclusive [inhibitor, partial curve] | 
O=C(c1cccc(F)c1)N1CCC2(CC1)CN(c1ccc(-c3ccccc3)cc1)C2 | inactive | 
CCOc1cc(NC(=O)c2cccs2)c(OCC)cc1NC(=O)CCC(=O)NCC1CCCO1 (stereo unspecified) | inactive | 
O=C(N/N=C/c1c(Cl)cccc1Cl)c1n[nH]c2c1CCCC2 | active: 8.91 µM | 
CCCOc1ccc(OC(=O)c2ccc(Br)o2)cc1 | inactive | 
Fc1ccc(-c2nc3n(n2)Cc2ccccc2-3)cc1 | active: 11.2 µM | 
O=C(OCC(F)(F)F)[C@H](O)[C@@H](O)C(=O)OCC(F)(F)F | inactive | 
CC(=O)Oc1ccc2c(=O)c(-c3nc4ccccc4s3)coc2c1 | active: 10 µM | 
COc1ccccc1N=c1oc2cc(O)ccc2cc1C(N)=O | inconclusive [inhibitor, single point] | 
COc1cccc(-c2nc(-c3ccccn3)no2)c1 | active: 7.94 µM | 
CC(=O)Nc1ccc(N=Cc2c(O)c(C(=O)Nc3ccccc3)cc3ccccc23)cc1 | inconclusive [inhibitor, partial curve] | 
O=C(Nc1ccccc1-c1ccccc1)c1ccc(NC(=O)c2ccco2)cc1 | inactive | 
Cn1cccc1/C=N/NC(=O)c1ccn[nH]1 | inconclusive [inhibitor, single point] | 
